According to US8633212B2, “Inhibitors of beta-secretase” (Vitae Pharmaceuticals, Inc., priority 2009, dated 2014):

Molecular target: ectodomain of BACE (aa 1-454) fused to a myc-his tag, secreted from HEK293/BACEect. cells (Homo sapiens (Human), UniProt P56817)
Assay: biochemical

Compound	IC50
COC1CCC2(CC1)Cc1ccc(C#CC3CC3)cc1C21N=C(N)N(CCCN(C)C)C1=O (centres unmarked) [Compound 343]	22 µM
COC1CCC2(CC1)Cc1ccc(CCC3CC3)cc1C21N=C(N)N(CC(F)(F)F)C1=O (centres unmarked) [Compound 345]	0.0615 µM
COC1CCC2(CC1)Cc1ccc(CCC3CC3)cc1C21N=C(N)N(CC2CCC2)C1=O (centres unmarked) [Compound 347]	0.0204 µM
COC1CCC2(CC1)Cc1ccc(CCC3CC3)cc1C21N=C(N)N(CC2CCCO2)C1=O (centres unmarked) [Compound 348]	0.0126 µM
CCC(CC)CN1C(=O)C2(N=C1N)c1cc(CCC3CC3)ccc1CC21CCC(OC)CC1 (centres unmarked) [Compound 349]	0.0163 µM
COC1CCC2(CC1)Cc1ccc(CCC3CC3)cc1C21N=C(N)N(Cc2cccc(F)c2)C1=O (centres unmarked) [Compound 353]	0.0158 µM
COC1CCC2(CC1)Cc1ccc(CCC3CC3)cc1C21N=C(N)N(Cc2ccccc2F)C1=O (centres unmarked) [Compound 354]	0.0477 µM
COc1cccc(CN2C(=O)C3(N=C2N)c2cc(CCC4CC4)ccc2CC32CCC(OC)CC2)c1 (centres unmarked) [Compound 356]	0.192 µM
COC1CCC2(CC1)Cc1ccc(CCC3CC3)cc1C21N=C(N)N(Cc2ccc(F)cn2)C1=O (centres unmarked) [Compound 357]	0.0125 µM
COC1CCC2(CC1)Cc1ccc(CCC3CC3)cc1C21N=C(N)N(Cc2ccc(F)cc2)C1=O (centres unmarked) [Compound 359]	0.0141 µM
COC1CCC2(CC1)Cc1ccc(CCC3CC3)cc1C21N=C(N)N(CCc2ccccc2)C1=O (centres unmarked) [Compound 363]	0.0173 µM
COC1CCC2(CC1)Cc1ccc(CCC3CC3)cc1C21N=C(N)N(Cc2ccccc2Cl)C1=O (centres unmarked) [Compound 364]	0.0241 µM
COC1CCC2(CC1)Cc1ccc(CCC3CC3)cc1C21N=C(N)N(Cc2ccccn2)C1=O (centres unmarked) [Compound 367]	0.0158 µM
COCCN1C(=O)C2(N=C1N)c1cc(CCC3CC3)ccc1CC21CCC(OC)CC1 (centres unmarked) [Compound 369]	0.0132 µM
COC1CCC2(CC1)Cc1ccc(CCC3CC3)cc1C21N=C(N)N(CC2CCOC2)C1=O (centres unmarked) [Compound 370]	0.0035 µM
COC1CCC2(CC1)Cc1ccc(CCC3CC3)cc1C21N=C(N)N(CCC(F)(F)F)C1=O (centres unmarked) [Compound 371]	0.0243 µM
COC1CCC2(CC1)Cc1ccc(CCC3CC3)cc1C21N=C(N)N(CC2CCN(C(C)=O)CC2)C1=O (centres unmarked) [Compound 372]	0.0097 µM
COC1CCC2(CC1)Cc1ccc(CCC3CC3)cc1C21N=C(N)N(CC(F)F)C1=O (centres unmarked) [Compound 374]	0.0289 µM
COC1CCC2(CC1)Cc1ccc(CCC3CC3)cc1C21N=C(N)N(CC2CCOCC2)C1=O (centres unmarked) [Compound 376]	0.0113 µM

Compound	IC50
CCC(C)N1C(=O)C2(N=C1N)c1cc(OCC3CC3)ccc1CC21CCC(OC)CC1 (centres unmarked) [Compound 382]	0.0292 µM
CCCN1C(=O)C2(N=C1N)c1cc(OCC3CC3)ccc1CC21CCC(OC)CC1 (centres unmarked) [Compound 383]	0.0062 µM
COC1CCC2(CC1)Cc1ccc(CCC3CC3)cc1C21N=C(N)N(Cc2ccc(C#N)cc2)C1=O (centres unmarked) [Compound 387]	0.0155 µM
CO[C@H]1CC[C@]2(CC1)Cc1ccc(Br)cc1C21N=C(N)N(Cc2ccccc2)C1=O (some centres unmarked) [Compound 389]	0.0172 µM
CN1C(=O)C2(N=C1N)c1cc(Cl)ccc1CC21CCc2ccccc2CC1 (centres unmarked) [Compound 398]	0.0338 µM
CN1C(=O)C2(N=C1N)c1ccccc1CC21CCc2ccccc2CC1 (centres unmarked) [Compound 399]	0.0746 µM
CN1C(=O)C2(N=C1N)c1cc(C#CC3CC3)ccc1CC21CCc2ccccc2CC1 (centres unmarked) [Compound 402]	0.0725 µM
COc1ccc2c(c1)C1(N=C(N)N(C)C1=O)C1(CCc3ccccc3CC1)C2 (centres unmarked) [Compound 404]	0.0468 µM
COCCOc1ccc2c(c1)C1(N=C(N)N(C)C1=O)C1(CCc3ccccc3CC1)C2 (centres unmarked) [Compound 405]	0.0114 µM
CN1C(=O)C2(N=C1N)c1cc(OCC3CC3)ccc1CC21CCc2ccccc2CC1 (centres unmarked) [Compound 408]	0.0097 µM
CC(C)N1C(=O)C2(N=C1N)c1cc(C#N)ccc1CC21CCc2ccccc2CC1 (centres unmarked) [Compound 411]	0.0914 µM
CC(C)N1C(=O)C2(N=C1N)c1cc(OCC(F)(F)F)ccc1CC21CCc2ccccc2CC1 (centres unmarked) [Compound 413]	0.0483 µM
COCCN1C(=O)C2(N=C1N)c1cc(-c3cccnc3F)ccc1CC21CCc2ccccc2CC1 (centres unmarked) [Compound 414]	0.0063 µM
COCCN1C(=O)C2(N=C1N)c1cc(-c3cncc(F)c3)ccc1CC21CCc2ccccc2CC1 (centres unmarked) [Compound 415]	0.0081 µM
COCCN1C(=O)C2(N=C1N)c1cc(C#N)ccc1CC21CCc2ccccc2CC1 (centres unmarked) [Compound 416]	0.0161 µM
CN1C(=O)C2(N=C1N)c1cc(-c3ccccc3)ccc1OC21CCc2ccccc2CC1 (centres unmarked) [Compound 420]	0.0231 µM
CN1C(=O)C2(N=C1N)c1cc(C#CC3CC3)ccc1OC21CCc2ccccc2CC1 (centres unmarked) [Compound 421]	0.0148 µM
CN1C(=O)C2(N=C1N)c1cc(CCC3CC3)ccc1OC21CCc2ccccc2CC1 (centres unmarked) [Compound 422]	0.0068 µM
CN1C(=O)C2(N=C1N)c1ccccc1OC21CCc2ccccc2CC1 (centres unmarked) [Compound 423]	0.186 µM

Compound	IC50
CN1C(=O)C2(N=C1N)c1cc(C#N)ccc1OC21CCc2ccccc2CC1 (centres unmarked) [Compound 424]	0.0536 µM
CN1C(=O)C2(N=C1N)c1cc(OCC3CC3)ccc1OC21CCc2ccccc2CC1 (centres unmarked) [Compound 425]	0.0041 µM
CN1C(=O)C2(N=C1N)c1cc(OCC(F)(F)F)ccc1OC21CCc2ccccc2CC1 (centres unmarked) [Compound 426]	0.007 µM
CC(C)N1C(=O)C2(N=C1N)c1cc(Br)ccc1OC21CCc2ccccc2CC1 (centres unmarked) [Compound 427]	0.182 µM
CC(C)N1C(=O)C2(N=C1N)c1cc(C#N)ccc1OC21CCc2ccccc2CC1 (centres unmarked) [Compound 428]	0.293 µM
COC1CCC2(CC1)Cc1ccc(Br)cc1C21N=C(N)N(C(C)(C)C)C1=O (centres unmarked) [Compound 429]	1.67 µM
COC1CCC2(CC1)Cc1ccc(Br)cc1C21N=C(N)N(C2COC2)C1=O (centres unmarked) [Compound 431]	0.0558 µM
COC1CCC2(CC1)Cc1ccc(Br)cc1C21N=C(N)N(C2CCOCC2)C1=O (centres unmarked) [Compound 432]	0.0805 µM
COC1CCC2(CC1)Cc1ccc(Br)cc1C21N=C(N)N(N(C)C)C1=O (centres unmarked) [Compound 433]	0.575 µM
COC1CCC2(CC1)Cc1ccc(Br)cc1C21N=C(N)N(C2CCN(C)CC2)C1=O (centres unmarked) [Compound 434]	0.533 µM
COC1CCC2(CC1)Cc1ccc(Br)cc1C21CCSC(N)=N1 (centres unmarked) [Compound 436]	2.36 µM
COC1CCC2(CC1)Cc1ccc(C#CC3CC3)cc1C21CCSC(N)=N1 (centres unmarked) [Compound 438]	0.0791 µM
COC1CCC2(CC1)Oc1ccc(Br)cc1C21CCSC(N)=N1 (centres unmarked) [Compound 439]	30 µM
NC1=NC2(CCS1)c1cc(Br)ccc1CC21CCc2ccccc2CC1 (centres unmarked) [Compound 441]	19.5 µM
COC1CCC2(CC1)Cc1ccc(-c3cc(F)cc(Cl)c3)cc1C21CN(CC(F)(F)F)C(N)=N1 (centres unmarked) [Compound 445]	0.34 µM
COC1CCC2(CC1)Cc1ccc(Br)cc1C21CN(CC(F)(F)F)C(N)=N1 (centres unmarked) [Compound 446]	4.33 µM
CO[C@H]1CC[C@]2(CC1)Cc1ccc(-c3cnc(C)nc3)cc1C21C=C(N)N(C(C)C)C1=O (some centres unmarked) [Compound 548]	0.023 µM
COCCOc1ccc2c(c1)C1(C=C(N)N(CC(F)(F)F)C1=O)[C@]1(CC[C@H](OC)CC1)C2 (some centres unmarked) [Compound 550]	0.077 µM
